Source: the supplement of paper PMC10126150
Sequences with one replicate were seen in a single cluster, so their values are uncertain.

Test system: ATP
Test: switch fluorescence ratio, 500 uM ATP over buffer (Cy3 cluster intensity, sum of 5 cycles each) (fold (ratio)); higher = stronger signal-on switching upon ATP binding; sequences stand for … in TCGTCGGCAGCGTCAGATGTGTATAAGAGACAGTTTTTTTTTTTTTTTTTTTTTTTTT…TC
Details: aptamer strand: ATP DNA aptamer (quencher-CACCTGGGGGAGTATTGCGGAGGAAGG + anchor), 100 nM annealed; ATP concentration: 500 uM; one replicate
In short: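 Cy3-labelled switching-strand clusters on a modified Illumina MiSeq flow-cell were annealed to 100 nM quencher-labelled ATP aptamer, imaged in selection buffer, then imaged after 15 min with 500 uM ATP at 22 °C. Five buffer/ATP cycles ran, with NaOH stripping and re-annealing between them. The fluorescence ratio is summed target-cycle over summed buffer-cycle Cy3 intensity per cluster, averaged per switch-domain sequence. Clusters outside 100-1000 RFU were excluded.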
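Note: ATP exposure 15 min at 22 °C before imaging.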

## CGTTCTTACT
  switch fluorescence ratio: 1.05

## TTCAGATAGT
  switch fluorescence ratio: 0.994

## GCTCCATGAC
  switch fluorescence ratio: 2.42

## GGGTGGCTCA
  switch fluorescence ratio: 0.985

## TTTACCCGCT
  switch fluorescence ratio: 1.28

## TGCACGTTGA
  switch fluorescence ratio: 1

## CTATATCCGA
  switch fluorescence ratio: 1.01

## CAGGAACTAA
  switch fluorescence ratio: 0.97

## CTAAGAATCG
  switch fluorescence ratio: 1.11

## CCGAGGGGTA
  switch fluorescence ratio: 1.34

## CGAGGTACTT
  switch fluorescence ratio: 1.06

## GTCTAGGGAA
  switch fluorescence ratio: 0.942

## ATGAGCCCCT
  switch fluorescence ratio: 0.965

## GGTGCAACGG
  switch fluorescence ratio: 0.988

## GACCTAACGT
  switch fluorescence ratio: 1.31

## GAGAAACGGA
  switch fluorescence ratio: 1

## GCATACAGCC
  switch fluorescence ratio: 1.05

## CCATTACACT
  switch fluorescence ratio: 1.13

## TCATCCATAA
  switch fluorescence ratio: 1.18

## GAACTTTACA
  switch fluorescence ratio: 1.2

## AAGGCTTCTC
  switch fluorescence ratio: 1.03

## ACTGGGTTA
  switch fluorescence ratio: 1.02

## TCCTCTGCCT
  switch fluorescence ratio: 4.75

## GGGCTATG
  switch fluorescence ratio: 1.01

## AATATGAGAG
  switch fluorescence ratio: 1

## TAGACTTCA
  switch fluorescence ratio: 1.02

## ATGTGGAATT
  switch fluorescence ratio: 0.986

## GCGACTTGGT
  switch fluorescence ratio: 1.03

## TTATATGCG
  switch fluorescence ratio: 1.01

## TAATGGGTTC
  switch fluorescence ratio: 0.986

## GTGCTGCCTC
  switch fluorescence ratio: 1.04

## TAAATGGCCT
  switch fluorescence ratio: 1

## AACGATCTTA
  switch fluorescence ratio: 0.99

## AAGCCGCAAG
  switch fluorescence ratio: 1.81

## AAACGCGTG
  switch fluorescence ratio: 1.04

## CACTGTGTCC
  switch fluorescence ratio: 0.98

## ATTGTACAGA
  switch fluorescence ratio: 1

## ACCGAGATTG
  switch fluorescence ratio: 0.983

## CATCTTTTAT
  switch fluorescence ratio: 1

## ACTAGATGGT
  switch fluorescence ratio: 0.969

## TTGCCTTCG
  switch fluorescence ratio: 1.31

## CTTAATTGCC
  switch fluorescence ratio: 0.975

## CTGACGTGTA
  switch fluorescence ratio: 1.45

## CAACGTATCC
  switch fluorescence ratio: 1.01

## TCAAGTTTT
  switch fluorescence ratio: 1.11

## CAGCGATGGC
  switch fluorescence ratio: 1.13

## CTTAGGCTTT
  switch fluorescence ratio: 0.956

## TACGTAGATA
  switch fluorescence ratio: 1.06

## TCCCCAGGTT
  switch fluorescence ratio: 1.13

## GAGGGTCTAT
  switch fluorescence ratio: 1.04

## CCTCTAATTG
  switch fluorescence ratio: 1.33

## ATGGCATGTT
  switch fluorescence ratio: 1.03

## TTGGAAATCT
  switch fluorescence ratio: 1.1

## GCTACCAAC
  switch fluorescence ratio: 1.3

## GGTTGACAAT
  switch fluorescence ratio: 1.01

## TTGTCGTAT
  switch fluorescence ratio: 0.988

## CCCAAACGCG
  switch fluorescence ratio: 0.948

## CGTAGCTTCG
  switch fluorescence ratio: 0.982

## ATACAGGTGG
  switch fluorescence ratio: 1.02

## GTTTTAGTAC
  switch fluorescence ratio: 1.02

## AAGGGTCGG
  switch fluorescence ratio: 1.03

## AAGACAGACA
  switch fluorescence ratio: 1.06

## TTGTTGGCA
  switch fluorescence ratio: 1.03

## ACGGCGTGGT
  switch fluorescence ratio: 0.986

## TTGCGCACGT
  switch fluorescence ratio: 1.05

## CGCATCTTCG
  switch fluorescence ratio: 1.09

## TAGTTATAT
  switch fluorescence ratio: 0.999

## CCCACTTCTC
  switch fluorescence ratio: 1.05

## CTAAGCGGGG
  switch fluorescence ratio: 1

## TTCATTTTCG
  switch fluorescence ratio: 1.03

## AGATGCCGCA
  switch fluorescence ratio: 0.987

## CAGCCTTACA
  switch fluorescence ratio: 1.09

## AGGGCGGCAT
  switch fluorescence ratio: 0.988

## CGCGTGGTGC
  switch fluorescence ratio: 1.04

## TGACTGACGG
  switch fluorescence ratio: 1.09

## AGCAGCGGGA
  switch fluorescence ratio: 1

## AAGCAGTTTA
  switch fluorescence ratio: 0.981

## ATTCGAAGCA
  switch fluorescence ratio: 1.22

## GACTAGACCT
  switch fluorescence ratio: 1.33

## ACCATTATAA
  switch fluorescence ratio: 1.03

## GCTGTGACGT
  switch fluorescence ratio: 1.02

## ATTTCTGTTC
  switch fluorescence ratio: 1.02

## TGGTCAATAG
  switch fluorescence ratio: 2.19

## CGAGCTAGCC
  switch fluorescence ratio: 1.01

## ATGATCTTGT
  switch fluorescence ratio: 0.965

## ATATTAACGG
  switch fluorescence ratio: 1.05

## GAAGTTAGCA
  switch fluorescence ratio: 0.989

## TAATTCTCCG
  switch fluorescence ratio: 1.13

## AGCCTATCGT
  switch fluorescence ratio: 0.972

## TACGATCAG
  switch fluorescence ratio: 0.973

## AGACCGGGGC
  switch fluorescence ratio: 1.05

## CCGCCTATGT
  switch fluorescence ratio: 1.81

## ATTCTCGGAG
  switch fluorescence ratio: 0.971

## CTGGTCCCTG
  switch fluorescence ratio: 0.955

## GGAGGCGGCC
  switch fluorescence ratio: 1.01

## CTATGTAAGT
  switch fluorescence ratio: 1.03

## GATCATTGGG
  switch fluorescence ratio: 0.959

## TACGCAGCAT
  switch fluorescence ratio: 6.07

## CCGATCCCCA
  switch fluorescence ratio: 1.15

## GGGAAGCTGC
  switch fluorescence ratio: 1.01

## TAGGGGAGA
  switch fluorescence ratio: 1.04

## CTATCATGGG
  switch fluorescence ratio: 0.989

## GTAGTATGCC
  switch fluorescence ratio: 0.997

## ACTGATATTG
  switch fluorescence ratio: 1.05

## GGCTGGCAGG
  switch fluorescence ratio: 1.04

## TTAAATCC
  switch fluorescence ratio: 1.03

## GATTAAGGTG
  switch fluorescence ratio: 1.19

## AAGCTTTGAC
  switch fluorescence ratio: 1.02

## ATTCTGGACT
  switch fluorescence ratio: 1.05

## TCTCCCTTT
  switch fluorescence ratio: 1.02

## CCTACGACCG
  switch fluorescence ratio: 1.25

## GCGATTCGGT
  switch fluorescence ratio: 1.01

## CACATACAAC
  switch fluorescence ratio: 1.3

## GATGCAGGAT
  switch fluorescence ratio: 1.07

## TCAGGTCAAG
  switch fluorescence ratio: 1

## TACTGTGCTG
  switch fluorescence ratio: 1.01

## GAGGGTCGAG
  switch fluorescence ratio: 1.03

## CCCGCGTTTA
  switch fluorescence ratio: 1.08

## GGGACGCGA
  switch fluorescence ratio: 1.71

## TGCCTCTGGC
  switch fluorescence ratio: 1

## GACCTCCTTT
  switch fluorescence ratio: 1.07

## TGTCCAGGGC
  switch fluorescence ratio: 0.983

## AGAAAACGAT
  switch fluorescence ratio: 1.04

## GGGCTTGGTT
  switch fluorescence ratio: 1.04

## ATTGAACGTA
  switch fluorescence ratio: 1.03

## CGATGGCAGA
  switch fluorescence ratio: 1.04

## GCAGGGCTT
  switch fluorescence ratio: 0.969

## TTCCTACGTG
  switch fluorescence ratio: 1.11

## TATCGCGGAC
  switch fluorescence ratio: 1.79

## ACATGGTAAA
  switch fluorescence ratio: 0.969

## AGTCCCCCTG
  switch fluorescence ratio: 4.37

## GGGGACGGCC
  switch fluorescence ratio: 0.901

## TATCTGGCAC
  switch fluorescence ratio: 1.04

## TTCAAAAACG
  switch fluorescence ratio: 1.06

## GGTGAGTAAT
  switch fluorescence ratio: 1

## TATATGTGAC
  switch fluorescence ratio: 1.03

## TCATAGTAG
  switch fluorescence ratio: 0.983

## GTTGAGATGT
  switch fluorescence ratio: 1.01

## TTATAGCGTT
  switch fluorescence ratio: 0.949

## CGACTTTCGC
  switch fluorescence ratio: 1.03

## ATTTTTGGAA
  switch fluorescence ratio: 0.997

## GGGTGCGACG
  switch fluorescence ratio: 0.989

## AAAAATCGCC
  switch fluorescence ratio: 1.02

## CCACGATAAT
  switch fluorescence ratio: 1.21

## ATGGTTTGCC
  switch fluorescence ratio: 0.986

## AGCGGTGCGG
  switch fluorescence ratio: 1.03

## CTGGGACTAC
  switch fluorescence ratio: 1.18

## GACAGTGCAC
  switch fluorescence ratio: 1

## TGTGCAAGAT
  switch fluorescence ratio: 1.22

## GTTAGGGTCA
  switch fluorescence ratio: 0.964

## TCGTCGAAAA
  switch fluorescence ratio: 0.997

## ACATCTGTCT
  switch fluorescence ratio: 1.05

## ACGCTCACTA
  switch fluorescence ratio: 1.34

## CCTAAGGGGC
  switch fluorescence ratio: 1.09

## AGCGGCATCC
  switch fluorescence ratio: 1.07

## TTTTTCTTG
  switch fluorescence ratio: 0.944

## GTCGGCTGGA
  switch fluorescence ratio: 1.04

## TGACTTTGGT
  switch fluorescence ratio: 0.972

## CTTTGATCGA
  switch fluorescence ratio: 1.05

## CGGCAAAGTG
  switch fluorescence ratio: 1.07

## CTTGCTCTCG
  switch fluorescence ratio: 1.26

## GATGGTGGC
  switch fluorescence ratio: 0.938

## TGTTCCCGGC
  switch fluorescence ratio: 1.03

## CTTGCAGTCG
  switch fluorescence ratio: 1.03

## CATTCACGCC
  switch fluorescence ratio: 1.13

## GGCCGCCATG
  switch fluorescence ratio: 1.02

## TAGCGGGGAG
  switch fluorescence ratio: 1.02

## ACCTAGACTG
  switch fluorescence ratio: 0.934

## GAGGGCTATA
  switch fluorescence ratio: 1.04

## TTCCTGTCTT
  switch fluorescence ratio: 1.01

## CATACTATG
  switch fluorescence ratio: 0.971

## CTCCAGCCTA
  switch fluorescence ratio: 1.42

## TGTAATTGGA
  switch fluorescence ratio: 1.02

## CCGGTCGTTG
  switch fluorescence ratio: 0.995

## TGAATGTGTT
  switch fluorescence ratio: 0.977

## TAGAAGGCGG
  switch fluorescence ratio: 1.01

## AAAAAGGA
  switch fluorescence ratio: 0.98

## TTGCGTAGTA
  switch fluorescence ratio: 0.998

## CAGGATGGC
  switch fluorescence ratio: 1.01

## TCAGGAATAT
  switch fluorescence ratio: 1

## ACTAGCCC
  switch fluorescence ratio: 1.03

## CCGTAGGTAT
  switch fluorescence ratio: 1.11

## GAATCATATC
  switch fluorescence ratio: 1.01

## TGACCGTTCG
  switch fluorescence ratio: 0.982

## AATCCTTGCT
  switch fluorescence ratio: 1.22

## GCTACTGAGT
  switch fluorescence ratio: 1.03

## TGTGCAGAGT
  switch fluorescence ratio: 0.991

## GAGTTATACA
  switch fluorescence ratio: 1.01

## ACAAATAAAA
  switch fluorescence ratio: 0.989

## TGACTCCGGG
  switch fluorescence ratio: 0.993

## CCATCTTGGC
  switch fluorescence ratio: 0.974

## TTTTTGGGT
  switch fluorescence ratio: 0.954

## GCCCGTGCC
  switch fluorescence ratio: 1.03

## TCCATGCCTA
  switch fluorescence ratio: 0.973

## ATAGCTGTTT
  switch fluorescence ratio: 1.04

## TGACAATATC
  switch fluorescence ratio: 1.59

## TACTTCTGAA
  switch fluorescence ratio: 1.03

## TTTGAAAGTC
  switch fluorescence ratio: 0.972

## CCACGTCTTA
  switch fluorescence ratio: 1.02

## GATTGCATCT
  switch fluorescence ratio: 1.02

## TCTCACAGTC
  switch fluorescence ratio: 1.02
